The record followed here is publication PMC4336329 (PLoS ONE, 2015).

Screen size: about 310,000 compounds; about 14,000 (4.5%) showed an effect of 50% or more. Effects have a minus sign here. The list shows a part of the results.
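Also: peak tail current of the secondary pulse compared with the same well before compound.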

Sequence of human ether-à-go-go-related gene (hERG) potassium channel (Q12809 whole entry, looked up): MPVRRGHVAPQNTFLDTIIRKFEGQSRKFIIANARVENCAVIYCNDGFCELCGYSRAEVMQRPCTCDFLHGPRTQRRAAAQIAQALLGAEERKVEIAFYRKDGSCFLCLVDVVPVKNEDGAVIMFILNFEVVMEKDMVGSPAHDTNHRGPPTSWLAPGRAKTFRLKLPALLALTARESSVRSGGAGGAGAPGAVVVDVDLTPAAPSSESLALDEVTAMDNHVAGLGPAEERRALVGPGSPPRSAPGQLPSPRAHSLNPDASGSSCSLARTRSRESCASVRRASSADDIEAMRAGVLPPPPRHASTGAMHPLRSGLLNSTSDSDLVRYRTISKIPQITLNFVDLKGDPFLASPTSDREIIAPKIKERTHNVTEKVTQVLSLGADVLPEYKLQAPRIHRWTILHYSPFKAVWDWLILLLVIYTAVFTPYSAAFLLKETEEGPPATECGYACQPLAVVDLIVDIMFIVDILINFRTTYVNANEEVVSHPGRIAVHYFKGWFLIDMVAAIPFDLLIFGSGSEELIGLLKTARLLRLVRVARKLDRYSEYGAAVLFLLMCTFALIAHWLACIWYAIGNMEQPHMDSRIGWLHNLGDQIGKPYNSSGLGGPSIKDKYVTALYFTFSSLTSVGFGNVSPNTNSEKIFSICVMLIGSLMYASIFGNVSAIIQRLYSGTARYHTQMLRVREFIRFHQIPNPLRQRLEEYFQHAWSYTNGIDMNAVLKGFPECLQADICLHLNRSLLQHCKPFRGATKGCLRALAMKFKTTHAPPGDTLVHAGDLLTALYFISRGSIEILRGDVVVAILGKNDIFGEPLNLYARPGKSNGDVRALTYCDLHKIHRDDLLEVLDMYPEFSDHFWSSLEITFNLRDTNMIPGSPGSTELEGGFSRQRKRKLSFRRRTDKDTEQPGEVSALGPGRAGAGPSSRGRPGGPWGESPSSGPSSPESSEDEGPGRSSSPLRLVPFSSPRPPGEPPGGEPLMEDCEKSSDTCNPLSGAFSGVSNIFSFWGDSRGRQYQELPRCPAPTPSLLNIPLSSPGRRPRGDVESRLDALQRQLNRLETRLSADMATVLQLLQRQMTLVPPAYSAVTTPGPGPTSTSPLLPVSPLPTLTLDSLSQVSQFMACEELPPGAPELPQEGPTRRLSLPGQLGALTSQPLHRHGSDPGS

The experiment has as its target human ether-à-go-go-related gene (hERG) potassium channel (human, UniProt Q12809). The experiment in a line: primary screen, population patch clamp on CHO cells stably expressing hERG.
Consider `CN(C)C(=O)c1ccc(NC(=O)c2cc(-c3ccco3)nc3ccccc23)cc1`, for which the “hERG current change (%, negative = inhibition) at 10uM” value is given as 9.18%.

Turning to `COc1ccc(C(=O)NCc2ccc3c(c2)OCO3)cc1S(=O)(=O)N1CCCC1`, the “hERG current change (%, negative = inhibition) at 10uM” value is reported as -39%. Turning to `C=CCSc1nsc(NC(=O)Nc2ccc(F)cc2)n1`, the “hERG current change (%, negative = inhibition) at 10uM” value is recorded as 22.1%. Take `CN(CC(=O)Nc1ccc(S(=O)(=O)N2CCCC2)cc1)Cc1cccc(Cl)c1Cl`: the “hERG current change (%, negative = inhibition) at 10uM” value is 4.15%.

With `COc1ccccc1CNC(=O)COC(=O)c1ccc(S(=O)(=O)N2CCCC2)cc1`, the “hERG current change (%, negative = inhibition) at 10uM” value came to 2.79%. Then `CCc1cccc(C)c1NC(=O)c1cc(C)oc1C`, with 1.85%. Then `COCCCn1c(SCc2nc3ccccc3c(=O)[nH]2)nc2ccccc2c1=O`, with -24.7%; and `O=[N+]([O-])c1ccc2nc(NS(=O)(=O)c3ccc(Cl)cc3)sc2c1`, with -2.1%; and `COC(=O)CCCC(=O)N1CCCC(C(=O)c2ccc(-c3ccccc3)cc2)C1` (stereo not drawn), with -12%.

Regarding `CC(=O)Nc1ccc(C(=O)N/N=C/c2ccccc2OC(=O)c2ccc(Cl)cc2)cc1`, the “hERG current change (%, negative = inhibition) at 10uM” value is given as 1.42%. Then `CCCNC(=O)c1cn(CC)c2cc(N3CCN(C)CC3)c(F)cc2c1=O`, with 9.26%. Then `O=C(N/N=C\c1ccc(Cl)cc1Cl)c1sccc1-n1cccc1`, with -0.158%. As to `S=C(NCCCN1CCOCC1)Nc1cccc(Cl)c1`, the “hERG current change (%, negative = inhibition) at 10uM” value is on record as -10.6%. Then `Cc1ccc(C(=O)N2CC=C(c3ccccc3)CC2)o1`, with -12.7%. As for `C[C@@H](CSc1ccccc1)CN1CC[C@H](C(C)(C)C)CCC1=O`, the “hERG current change (%, negative = inhibition) at 10uM” value worked out at 1.34%. Then `Cc1ccc(S(=O)(=O)NCC(=O)OCC(=O)NC(=O)NC2CCCC2)cc1`, with 16.6%; and `CCn1c(SCC(=O)N/N=C\c2ccccc2OCC(=O)O)nnc1-c1ccc(Cl)cc1`, with -1.56%. Then `CN(C1CCCCC1)S(=O)(=O)c1ccc(S(=O)(=O)N2CCN(C(=O)c3ccccc3F)CC2)cc1`, with -12.2%; and `CC(C)Oc1cc(NC(=O)CS(=O)CC(=O)Nc2cccc(C(F)(F)F)c2)c(Cl)cc1Cl` (stereo not drawn), with 2.95%; and `Cn1nc(C(F)(F)F)c(/C=N/OC(=O)c2ccccc2)c1Cl`, with 3.92%. `Cc1cc(OCC(=O)O/N=C(\N)c2ccccc2)ccc1Cl`: the “hERG current change (%, negative = inhibition) at 10uM” value is given as 19.3%.

On to `O=C(NCc1ccco1)/C(=C/c1ccc(F)cc1)NC(=O)c1ccccc1`, for which the “hERG current change (%, negative = inhibition) at 10uM” value is listed as -14.1%. Then `Cc1ccccc1C(=O)Oc1ccc(Br)cc1C(=S)N1CCCC1`, with -1.75%; and `c1ccc(C2N3CCCN23)cc1` (stereo not drawn), with 12.9%. Turning to `Fc1ccccc1CCNc1nnnn1-c1ccccc1`, the “hERG current change (%, negative = inhibition) at 10uM” value is on record as 10.1%. Then `Cc1nc(C(=O)Nc2ccc(Cl)cc2)sc1C1(C)CC(c2cccc([N+](=O)[O-])c2)=NO1` (stereo not drawn), with -16.8%. Then `O=C(O)Cn1c(=O)c2c3c(sc2n(Cc2ccc(Cl)cc2Cl)c1=O)CCCC3`, with -4.17%; and `CS(=O)(=O)c1cccc(-c2csc(N3CCC(C(N)=O)CC3)n2)c1.O=C(O)C(F)(F)F`, with -22.5%; and `Cc1ccc(CN2C(=O)CSc3ccc(C(=O)NC4CC4)cc32)cc1`, with -10.7%.

On to `Cc1ccc(C(=O)NCc2ccccc2)cc1Br`, for which the “hERG current change (%, negative = inhibition) at 10uM” value was -1.73%. Regarding `CCOC(=O)c1ccc(NC(=S)N2CCC(O)CC2)cc1`, the “hERG current change (%, negative = inhibition) at 10uM” value was 18%. Under `CN(C)S(=O)(=O)c1cc(NC(=O)CN2CCN(c3ccccc3F)CC2)ccc1Cl` stands 5.43%.

For `N#Cc1cc(Br)ccc1N=C1CCCN1c1ccccc1`, the “hERG current change (%, negative = inhibition) at 10uM” value is -9.61%. Under `COC(=O)CCCC1=CC2=CC(=O)C(C)(OC(=O)c3ccc(Cl)nc3)C(=O)C2=CO1` (stereo not drawn) stands 10.4%. Then `CCc1nnc(NC(=O)CSc2ncc(-c3ccccc3)n2C)s1`, with -0.226%.

As to `CSc1ccc(S(=O)(=O)NCCCOC(C)C)cc1`, the “hERG current change (%, negative = inhibition) at 10uM” value is on record as -0.0722%. `COC(=O)CCNC(=O)CCc1ccc(S(=O)(=O)N2CCCCCC2)cc1`: the “hERG current change (%, negative = inhibition) at 10uM” value is -12.1%. Then `CC(NC(=O)c1cccc(Br)c1)c1ccccc1` (stereo not drawn), with -2.43%; and `Cl.OC(COc1c(F)cc(Br)cc1F)CN1CCOCC1` (stereo not drawn), with 2.28%. Then `C/C(=N\Nc1nc2ccccc2s1)c1cccs1`, with 32.4%; and `Cc1ccsc1CN(C)C(=O)CN1C(=O)NC2(CCCc3ccccc32)C1=O` (stereo not drawn), with -29.6%. As to `COc1ccc(-n2nc(C(=O)NCC(=O)N3CCC(C)CC3)c3ccccc3c2=O)c(OC)c1`, the “hERG current change (%, negative = inhibition) at 10uM” value is -4.75%.

As for `CC1(C)Cc2c(cnn2-c2cccc(F)c2)C(NC(=O)CN2CCCC2=O)C1` (stereo not drawn), the “hERG current change (%, negative = inhibition) at 10uM” value is recorded as 8.24%.

For the compound `CC1=CC(C)C(C(=O)O)C(C(=O)O)C1` (stereo not drawn), the “hERG current change (%, negative = inhibition) at 10uM” value came to 35.3%.

Consider `Cc1cc(NC(=O)CN2CCN(c3ncccn3)CC2)no1.Cl`, for which the “hERG current change (%, negative = inhibition) at 10uM” value is given as 8.63%. Under `O=S(=O)(c1ccccc1)n1cc(-c2ccccn2)c(N2CCOCC2)n1` stands -6.36%. Consider `Cc1cc(C)n(-c2ncc3c(n2)N(C)CCOC3=O)n1`, for which the “hERG current change (%, negative = inhibition) at 10uM” value was 12.8%. On to `CCC(=O)c1c(NCCc2ccccc2)cc(C)oc1=O`, for which the “hERG current change (%, negative = inhibition) at 10uM” value came out at 26.9%. Under `Cc1cccc(C(=O)N/N=C/c2ccncc2)c1` stands 11.6%; under `CCC(OC(=O)c1ccco1)C(=O)NCc1ccc(C)cc1` (stereo not drawn), -9.07%; under `CCCOc1ccc(-c2cnc(SCC(N)=O)nc2N)cc1`, -0.0819%. As for `Cc1ccc(N/C=C2\C(=O)C3(C)CCC2C3(C)C)cc1C` (stereo not drawn), the “hERG current change (%, negative = inhibition) at 10uM” value turned out to be 12.7%. Turning to `NC(=O)c1ccccc1NC(=O)Nc1ccc(F)c(Cl)c1`, the “hERG current change (%, negative = inhibition) at 10uM” value is given as 9.38%. Under `Cc1ccc(S(=O)(=O)N2CCN(CC(=O)Nc3ccccc3Cl)CC2)cc1` stands -0.79%; under `Cc1ccc2c(c1)sc1nc(=O)n(-c3ccc(Cl)c(Cl)c3)c(=O)n12`, 5.1%; under `CO/N=C/NC(=O)c1cn(-c2ccc(F)cc2)c(=O)c2ccccc12`, -10.1%. Then `Cc1nc([N+](=O)[O-])cn1C(C)C`, with 2.46%.
